Test results reported in PubChem BioAssay AID504333 (National Center for Advancing Translational Sciences (NCATS), 2011).
In all, about 360,000 compounds went through this assay and about 16,000 (4.4%) were called active. Inconclusive results, whose numbers are uncertain, are shown with a selection of clear calls. Calls follow the shape of the dose curve; as a rule, active = well fitted inhibition curve with a large enough effect; inconclusive = small, poorly fitted or top-dose-only effect; inactive = no such curve, though single readings can be large or run the other way. Potencies of inconclusive entries are doubtful fits and often do not repeat.

What follows are compounds tested against Bromodomain adjacent to zinc finger domain protein 2B (Homo sapiens) (UniProt Q9UIF8) (assay: qHTS Assay for Inhibitors of BAZ2B). Settings: AlphaScreen BAZ2B-H3K14Ac peptide displacement; activity change, negative = inhibition: at 114 µM (top of the series) unless noted.
Method in brief: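 In this displacement format the biotinylated H3(5-23) peptide acetylated at Lys14 serves as ligand at 50 nM, with BAZ2B at 50 nM in PBS pH 7.4 containing 0.01% Tween-20. Donor and acceptor beads are 10 ug/mL final.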
% is scaled to controls: 0 for no effect and ±100 for the full control effect; potency is read from the fitted curve at half-maximal effect; tags tell the direction and shape of the fitted curve.
Also: nearly all actives have a fitted effect of over 60% in size.

UniProt Q9UIF8, sequence (Q9UIF8 whole entry, looked up, the tested form may be a part): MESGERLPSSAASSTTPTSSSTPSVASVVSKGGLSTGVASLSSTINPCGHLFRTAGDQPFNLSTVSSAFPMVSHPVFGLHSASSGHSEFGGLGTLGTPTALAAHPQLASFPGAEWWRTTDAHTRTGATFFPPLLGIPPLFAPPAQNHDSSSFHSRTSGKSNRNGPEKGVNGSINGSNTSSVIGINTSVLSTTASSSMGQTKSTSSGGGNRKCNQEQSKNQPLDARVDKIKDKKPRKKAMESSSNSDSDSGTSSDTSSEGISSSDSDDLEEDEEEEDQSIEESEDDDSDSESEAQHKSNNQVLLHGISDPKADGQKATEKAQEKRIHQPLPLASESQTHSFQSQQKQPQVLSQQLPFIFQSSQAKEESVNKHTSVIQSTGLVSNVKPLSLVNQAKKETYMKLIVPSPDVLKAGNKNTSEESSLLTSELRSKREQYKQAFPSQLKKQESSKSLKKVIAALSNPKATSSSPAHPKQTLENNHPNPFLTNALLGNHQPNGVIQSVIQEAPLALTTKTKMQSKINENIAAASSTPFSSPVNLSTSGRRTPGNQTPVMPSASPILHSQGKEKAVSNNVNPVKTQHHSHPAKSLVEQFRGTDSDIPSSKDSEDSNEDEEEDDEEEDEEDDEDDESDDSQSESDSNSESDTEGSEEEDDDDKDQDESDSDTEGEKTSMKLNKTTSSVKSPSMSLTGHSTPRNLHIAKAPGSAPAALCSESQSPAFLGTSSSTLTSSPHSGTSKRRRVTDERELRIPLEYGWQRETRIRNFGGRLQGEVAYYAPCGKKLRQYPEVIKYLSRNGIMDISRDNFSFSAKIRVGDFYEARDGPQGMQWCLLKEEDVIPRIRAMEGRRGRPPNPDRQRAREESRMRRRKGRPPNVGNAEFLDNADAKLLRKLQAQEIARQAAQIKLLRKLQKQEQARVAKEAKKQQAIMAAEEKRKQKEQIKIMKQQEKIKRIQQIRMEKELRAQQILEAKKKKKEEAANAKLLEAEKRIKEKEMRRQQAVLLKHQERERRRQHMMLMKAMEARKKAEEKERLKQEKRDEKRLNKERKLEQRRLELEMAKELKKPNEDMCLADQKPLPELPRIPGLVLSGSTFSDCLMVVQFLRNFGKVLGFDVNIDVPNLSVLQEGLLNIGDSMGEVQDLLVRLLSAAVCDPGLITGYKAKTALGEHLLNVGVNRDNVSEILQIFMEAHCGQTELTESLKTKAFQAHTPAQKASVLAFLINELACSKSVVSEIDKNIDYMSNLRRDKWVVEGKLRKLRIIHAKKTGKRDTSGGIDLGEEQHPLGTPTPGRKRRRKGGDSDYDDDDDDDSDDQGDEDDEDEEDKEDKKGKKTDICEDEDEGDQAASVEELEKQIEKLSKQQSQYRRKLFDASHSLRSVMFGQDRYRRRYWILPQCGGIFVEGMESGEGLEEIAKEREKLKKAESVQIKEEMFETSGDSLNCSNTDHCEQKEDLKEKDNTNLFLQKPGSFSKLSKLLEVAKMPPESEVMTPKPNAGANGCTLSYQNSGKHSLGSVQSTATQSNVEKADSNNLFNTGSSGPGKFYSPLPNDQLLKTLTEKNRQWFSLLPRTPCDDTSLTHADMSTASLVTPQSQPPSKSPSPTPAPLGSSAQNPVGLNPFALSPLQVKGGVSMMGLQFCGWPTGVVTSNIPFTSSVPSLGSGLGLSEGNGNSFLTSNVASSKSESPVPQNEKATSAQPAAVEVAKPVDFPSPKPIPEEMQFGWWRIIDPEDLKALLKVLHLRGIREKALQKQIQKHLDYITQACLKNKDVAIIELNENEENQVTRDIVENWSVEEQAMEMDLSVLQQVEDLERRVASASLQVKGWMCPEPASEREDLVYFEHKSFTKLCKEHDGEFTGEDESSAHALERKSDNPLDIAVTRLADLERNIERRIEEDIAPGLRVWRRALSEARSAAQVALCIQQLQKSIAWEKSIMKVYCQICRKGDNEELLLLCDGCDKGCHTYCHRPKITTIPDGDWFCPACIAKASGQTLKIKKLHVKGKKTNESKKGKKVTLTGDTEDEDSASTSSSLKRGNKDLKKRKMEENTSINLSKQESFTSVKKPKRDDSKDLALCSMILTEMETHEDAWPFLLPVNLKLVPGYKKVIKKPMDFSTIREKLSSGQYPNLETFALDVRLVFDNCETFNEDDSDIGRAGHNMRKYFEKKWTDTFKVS

**Q.** For `O=C(NCCO)c1ccc2c3n(nc2c1)-c1ccc(Cl)cc1CO3`, which “activity change, negative = inhibition” value is on record?
**A.** inactive: 6.49%

**Q.** For `Cc1ccc2c(C)c(C(=O)N(Cc3ccc(N(C)C)cc3)Cc3ccco3)oc2c1C`, which Potency is on record?
**A.** active: 10 µM

**Q.** `CC1CCN(CCOc2ccc(C(=O)c3ccccc3)cc2)CC1` was tested. Which Potency did it give?
**A.** inconclusive: 89.1 µM [inhibitor, single point]

**Q.** How did the Potency turn out when `Fc1ccc(-n2cc(-c3ccccc3)c3c(=S)nc[nH]c32)cc1` was run?
**A.** inconclusive: 50.1 µM [inhibitor, partial curve]

**Q.** With `CNC(=S)N/N=C/c1cc(C)n(-c2ccc(Cl)c(Cl)c2)c1C` as the compound, how does the Potency read?
**A.** active: 35.5 µM

**Q.** Which Potency does the source give for `Cc1ccc(C(C)n2cc(C(=O)NCc3cccnc3)nn2)cc1` (stereo unspecified) here?
**A.** inconclusive: 89.1 µM [inhibitor, single point]

**Q.** Which Potency does the source give for `COc1ccc2c(c1)c(N1CCCC1=O)c(C(=O)Nc1cc(C)c(Cl)cc1OC)n2C` here?
**A.** inconclusive: 89.1 µM [inhibitor, single point]

**Q.** `CCN(c1ccccc1)S(=O)(=O)c1nnc(NC(=O)C2CCCCC2)s1` was tested. Which Potency did it give?
**A.** inconclusive: 10 µM [inhibitor, full curve]

**Q.** With `CC(C)Oc1ccc(C(=O)NCC(c2ccc(N(C)C)cc2)N2CCc3ccccc32)cc1` (stereo unspecified) as the compound, how does the Potency read?
**A.** active: 15.8 µM

**Q.** Which Potency does the source give for `COc1ccc(C(=O)Nc2ccc3c(c2)n(C)c(=O)n3C)cc1OC` here?
**A.** active: 56.2 µM

**Q.** For `CCOC(=O)c1ccccc1NC(=O)N1CCC(CN2CCOCC2)CC1`, which “activity change, negative = inhibition” value is on record?
**A.** inactive: 1.1%

**Q.** For `CCOC(=O)c1[nH]c2c(c1Cc1ccccc1)C(=O)CC(c1ccccc1)C2` (stereo unspecified), which “activity change, negative = inhibition” value is on record?
**A.** inactive: -7.24%

**Q.** `COC(=O)c1c(NC(=O)COC(=O)Cn2cnc3ccccc32)sc2c1CCCC2` was tested. Which Potency did it give?
**A.** inconclusive: 70.8 µM [inhibitor, single point]

**Q.** Which Potency does the source give for `O=C(CN1C(=O)c2cccc([N+](=O)[O-])c2C1=O)N1CCN(c2ccc(F)cc2)CC1` here?
**A.** inconclusive: 79.4 µM [inhibitor, single point]

**Q.** `Cc1sc2nc(CN3CCOCC3)nc(Oc3ccc(NC(=O)c4ccco4)cc3)c2c1C` was tested. Which Potency did it give?
**A.** inactive

**Q.** `CCOc1ccccc1N1CCN(C2=C(NS(=O)(=O)c3cccs3)C(=O)c3ccccc3C2=O)CC1` was tested. Which Potency did it give?
**A.** active: 8.91 µM

**Q.** For `O=C(CSc1ccccc1F)NC(=O)NCc1ccco1`, which Potency is on record?
**A.** active: 39.8 µM

**Q.** For `Cc1cc(C(=O)CSc2nn3c(=O)c(C(C)(C)C)nnc3s2)c(C)n1C1CC1`, which Potency is on record?
**A.** inconclusive: 39.8 µM [inhibitor, full curve]

**Q.** With `O=[N+]([O-])c1cccc(-c2ncc3ccccn23)c1` as the compound, how does the Potency read?
**A.** inconclusive: 79.4 µM [inhibitor, partial curve]

**Q.** For `Clc1cccc(CN2CCN(c3ncccn3)CC2)c1Cl`, which Potency is on record?
**A.** inconclusive: 89.1 µM [inhibitor, single point]

**Q.** With `COc1ccc(S(=O)(=O)n2nc(C)c(S(=O)(=O)N3CCCCCC3)c2C)cc1C` as the compound, how does the Potency read?
**A.** inconclusive: 89.1 µM [inhibitor, single point]

**Q.** How did the “activity change, negative = inhibition” value turn out when `CCC(C)NC(=O)C(=O)NCC1CCCN1CC` (stereo unspecified) was run?
**A.** inactive: -14.9%

**Q.** Which “activity change, negative = inhibition” value does the source give for `O=[N+]([O-])c1ccc2c(c1)nc(CO)n2Cc1ccccc1` here?
**A.** inactive: 5.03%

**Q.** For `N#Cc1ccc(C(=O)CN2CCN(c3ccccc3)CC2)cc1`, which “activity change, negative = inhibition” value is on record?
**A.** inactive: -27%

**Q.** Which Potency does the source give for `O=C(c1ccc([N+](=O)[O-])s1)N1CCN(c2cccc(Cl)c2)CC1` here?
**A.** active: 25.1 µM

**Q.** How did the Potency turn out when `CCC(=O)NC(=S)N1CCN(c2ccc([N+](=O)[O-])cc2Cl)CC1` was run?
**A.** inconclusive: 89.1 µM [inhibitor, single point]

**Q.** Which Potency does the source give for `CCc1cc2c3c(c1)C(C)CC(C)(C)N3C(=O)/C2=C1\SC(=O)NC1=O` (stereo unspecified) here?
**A.** inconclusive: 56.2 µM [inhibitor, partial curve]

**Q.** Which “activity change, negative = inhibition” value does the source give for `Clc1ccc(CSc2nnc(-c3cccnc3)n2Cc2ccco2)c(Cl)c1` here?
**A.** inactive: -24.1%

**Q.** How did the Potency turn out when `Cc1ccc(OCC(=O)Nc2ccc(N3CCN(C(=O)c4ccco4)CC3)cc2)c(C)c1` was run?
**A.** active: 31.6 µM

**Q.** How did the Potency turn out when `Cc1ccc(C(=O)c2c3ccc([N+](=O)[O-])cc3[n+]([O-])n2CCC(N)=O)cc1` was run?
**A.** inconclusive: 50.1 µM [inhibitor, partial curve]

**Q.** With `Fc1ccc(N2CCN(C(=S)NCc3ccco3)CC2)cc1` as the compound, how does the Potency read?
**A.** inconclusive: 56.2 µM [inhibitor, single point]

**Q.** How did the Potency turn out when `COc1cc(C2C(C#N)=C(N)OC3=C2C(=O)CCC3)c([N+](=O)[O-])cc1OC` (stereo unspecified) was run?
**A.** inconclusive: 89.1 µM [inhibitor, single point]

**Q.** `O=C(Nc1ccc(F)cc1F)C1CCCN1S(=O)(=O)c1ccc(-c2ccc(=O)[nH]n2)s1` (stereo unspecified) was tested. Which Potency did it give?
**A.** inconclusive: 89.1 µM [inhibitor, single point]

**Q.** For `CCOC(=O)C1=C(C)n2c(s/c(=C3\C(=O)Nc4ccccc43)c2=O)=NC1c1ccc(OC)cc1` (stereo unspecified), which Potency is on record?
**A.** inconclusive: 1.58 µM [inhibitor, full curve, poor fit]

**Q.** How did the “activity change, negative = inhibition” value turn out when `O=S(=O)(Nc1ccc(N2CCOCC2)cc1)c1ccccc1` was run?
**A.** inactive: 5.96%

**Q.** With `CCOc1ccccc1CNC(=O)Cn1nc(C)c2c(C)n(-c3ccc(C)cc3)nc2c1=O` as the compound, how does the Potency read?
**A.** inconclusive: 89.1 µM [inhibitor, single point]

**Q.** `Cc1ccc(CNC(=O)c2ccc(N3CCC4(CC3)CC(c3ccccc3)=NO4)c(NC(=O)c3c(Cl)cccc3Cl)c2)cc1` was tested. Which “activity change, negative = inhibition” value did it give?
**A.** inactive: -25.4%

**Q.** `Cc1[nH]c2ccc(C(=O)N3CCN(Cc4ccccc4)CC3)cc2c1C` was tested. Which Potency did it give?
**A.** inconclusive: 79.4 µM [inhibitor, single point]

**Q.** How did the “activity change, negative = inhibition” value turn out when `CC(=O)Nc1sc2c(c1C(c1ccccc1)N1CCOCC1)CCCC2` (stereo unspecified) was run?
**A.** inactive: -10.1%

**Q.** `O=[N+]([O-])c1ccc(NNC(=S)Nc2ccc(F)cc2)cc1` was tested. Which Potency did it give?
**A.** active: 44.7 µM

**Q.** With `OCCC1CN(Cc2cccc(-c3ccco3)c2)CCN1Cc1ccsc1` (stereo unspecified) as the compound, how does the Potency read?
**A.** inconclusive: 50.1 µM [inhibitor, partial curve]

**Q.** Which “activity change, negative = inhibition” value does the source give for `C=CCOc1ccccc1CNCCCN1CCOCC1` here?
**A.** inactive: -17.8%

**Q.** `C/C(=N\NC(=S)NCc1ccccc1)c1ccc2ccccc2c1OC(F)F` was tested. Which Potency did it give?
**A.** inconclusive: 25.1 µM [inhibitor, full curve]

**Q.** Which “activity change, negative = inhibition” value does the source give for `CCOc1ncccc1C(=O)NCc1ccccc1` here?
**A.** inactive: 2.29%

**Q.** How did the Potency turn out when `Oc1c(C(c2ccccc2)N2CCCC2)sc2nc(-c3ccco3)nn12` (stereo unspecified) was run?
**A.** inconclusive: 89.1 µM [inhibitor, single point]

**Q.** With `COc1ccc(OC)c(NC(=O)CSc2nnc(CNC(=O)COc3ccc(Cl)cc3)o2)c1` as the compound, how does the Potency read?
**A.** inconclusive: 50.1 µM [inhibitor, partial curve]
